Data reported in PubChem BioAssay (NCATS).
Where “and” joins values, the source holds several entries; their conditions need not be identical. Identical values can stand only once. Some of the results follow. Shown are side measurements of this screen, not its main read-out; they come without a call. Compounds called inactive in the main read-out are mostly missing here. Potencies come from curve fits of mixed quality, noted in brackets.

How the values were obtained:
[1] = qHTS Assay for Lipid Storage Modulators (AID 1519); settings: Drosophila S3 cells, BODIPY lipid droplet/cell ratio, laser cytometry, cells loaded with oleic acid
In short: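 Cells seeded at 5,000 per well were treated with compounds over a concentration series and loaded with oleic acid (400 uM, as added). Lipid droplet fluorescence (488 nm excitation, 500-530 nm channel) was read by laser-scanning cytometry and normalized to 20 uM Triacsin C.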

[2] = qHTS Assay for Modulators of Human Peripheral Myelin Protein 22 (PMP22) Expression/Activity (AID 1967); settings: Cell-based PMP22 reporter, dual-color luciferase ratio
In short: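 Engineered MSC80 cells, Pmp22-promoter green and EF-alpha red luciferase reporters; 24h compound treatment at 37 °C. Concentration-response fits on green, red and ratio signals, each overlap-corrected, with %Activity normalized to untreated wells.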

[3] = qHTS Validation Assay to Find Inhibitors of Chronic Active B-Cell Receptor Signaling (AID 485345); settings: ABC-DLBCL cells, chronic BCR signaling reporter; measured here: CBG/CBR ratio read-out
In short: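 Read-out: ratio of filter-corrected green (IkappaBalpha fusion) to red (native) luciferase signal in doxycycline-induced TMD8 cells after 4 h at 37C. Titration spanned 46 uM–3 nM; Data were normalised to basal cells and 10 uM MG-132 wells.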

[4] = measured here: cell count channel max response
[5] = measured here: cell number channel AC50
[6] = measured here: lipid (BODIPY) channel AC50
[7] = measured here: lipid channel max response
[8] = measured here: green reporter channel AC50, mouse Pmp22 promoter in mouse Schwann cells
[9] = measured here: red reporter channel AC50, EF-alpha promoter control reporter in MSC80 mouse Schwann cells
Tags tell the direction and shape of the fitted curve.

| SMILES | max response [1, 4] | AC50 [1, 5] | AC50 [1, 6] | max response [1, 7] | AC50 [2, 8] | AC50 [2, 9] | AC50 [3] |
| --- | --- | --- | --- | --- | --- | --- | --- |
| CN1CCN(c2nc3cc(C(F)(F)F)ccc3n3cccc23)CC1 | 104% | 35.5 µM [rising, partial curve] | 31.6 µM [rising, partial curve] | 130% | 67.5 µM [falling, partial curve] | 84.9 µM [falling, partial curve] | 20.6 µM [falling, single point] |
| C[C@](N)(Cc1ccc(O)c(O)c1)C(=O)O | 38.4% | 15.8 µM [rising, single point] | 31.6 µM [rising, single point] | 48.4% | 84.9 µM [falling, single point] | 84.9 µM [falling, single point] |  |
| O=C(c1ccc(F)cc1)C1CCN(CCn2c(=O)[nH]c3ccccc3c2=O)CC1 | 5.18% and 71.4% | 35.5 µM [rising, partial curve, poor fit] | 39.8 nM [rising, full curve, poor fit] and 39.8 µM [rising, partial curve, poor fit] | 5.3% and 88.1% | 84.9 µM [falling, single point] | 84.9 µM [falling, single point] |  |
| COC(=O)c1c(-c2cc(OC)c(OC)c(OC)c2)c2ccnc(OCc3ncccn3)c2c(=O)n1Cc1ccnc(C)c1 | 85.1% and 51.2% | 25.1 µM [rising, partial curve, poor fit] | 28.2 µM [rising, partial curve] | 109% and 52.4% |  | 84.9 µM [falling, single point] |  |
| CC(C)CN(C)c1nc(N)c(C(=O)N=C(N)N)nc1Cl | -8.73% | 15.8 µM [falling, partial curve, poor fit] | 15.8 µM [falling, partial curve, poor fit] | -6.76% | 75.7 µM [falling, single point] | 75.7 µM [falling, partial curve, poor fit] |  |
| O=S(=O)(c1cccc2c(Cl)cccc12)N1CCCNCC1 | 52.5% and 48.9% | 39.8 µM [rising, single point] | 39.8 µM [rising, single point] | 78.7% and 51.3% | 42.6 µM [falling, partial curve] | 47.8 µM [falling, partial curve] |  |
| Cc1cc(C(C)(C)C)c(O)c(C)c1CC1=NCCN1 | -4.21% | 2.82 µM [falling, full curve, poor fit] | 2.82 µM [falling, full curve, poor fit] | -4.61% | 67.5 µM [falling, partial curve, poor fit] | 75.7 µM [falling, partial curve, poor fit] |  |
| Nc1ccc(-c2ccc3ccccc3n2)cc1 | -34.3% | 20 µM [falling, full curve, poor fit] | 20 µM [falling, full curve, poor fit] | -33.3% |  | 84.9 µM [falling, single point] |  |
| c1ccc2nc(C3=NCCN3)ccc2c1 | 40.2% and -35.7% | 28.2 µM [rising, partial curve, poor fit] | 28.2 µM [rising, partial curve, poor fit] | 48.1% and -35.3% |  | 19 µM [rising, partial curve, poor fit] |  |
| CC1=C(CC(=O)O)c2cc(F)ccc2/C1=C\c1ccc(S(C)=O)cc1 (stereo not drawn) | 96.8% and 17.3% and -19.7% | 31.6 µM [rising, partial curve, poor fit] and 15.8 µM [falling, single point] | 31.6 µM [rising, partial curve, poor fit] and 11.2 nM [rising, full curve, poor fit] and 15.8 µM [falling, single point] | 126% and 34% and -21.9% |  | 84.9 µM [falling, single point] |  |
| C[C@H](Cc1ccccc1)Nc1ncnc2c1ncn2[C@@H]1O[C@H](CO)[C@H](O)[C@H]1O | 37.1% | 0.00316 µM [rising, full curve, poor fit] | 0.00316 µM [rising, full curve, poor fit] | 39.2% | 6.75 µM [rising, full curve, poor fit] | 6.01 µM [rising, partial curve] |  |
